# The campaign covered roughly 94,000 compounds. About 6,200 (6.6%) were called active. The inconclusive results got no clear call from the source; some entries with a clear call stand among them for comparison. The call rests on the fitted dose curve; in most records, active means well fitted inhibition curve with a large enough effect; inconclusive means small, poorly fitted or top-dose-only effect; inactive means flat fitted curve, though single readings scatter. A potency beside an inconclusive call is a rough fit, not a confirmed value.
# Test: Cytotoxic Profiling in HEK 293 Cell Line of Diverse Libraries Using Quantitative High-Throughput Screening; further: nearly all actives have a fitted effect of over 60% in size
# Conditions: HEK 293 viability, ATP luminescence (CellTiter-Glo), 48-72 h; activity change, negative = cytotoxicity: at 115 µM (top of the series) unless noted; series mostly up to 115 µM
# Summary of the method: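 HEK 293 cells at 250 cells/well were exposed to compounds by pintool transfer for 48 or 72 hr at 37 degree Celsius, 5% CO2. Viability was read as ATP-coupled luminescence with CellTiter-Glo after 10 min at room temperature.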
# On the % scale 0 is the no-effect control and ±100 the full control effect; potency means the concentration at half of the fitted maximal effect; tags describe the fitted curve by direction and shape.
SMILES,Potency,"activity change, negative = cytotoxicity",outcome
O=C(c1ccc(F)cc1)N1CCN(c2nccc(Nc3ccccc3F)n2)CC1,active: 39.8 µM,,
O=C(Cc1cccc(Cl)c1)N1CCn2c(nn(-c3ccc(F)cc3)c2=O)C1,"inconclusive: 50.1 µM [inhibitor, partial curve]",,
COCC(=O)N[C@H]1C[C@@H](CO)N(Cc2ccc(C)o2)C1,,inactive: 3.75%,
COc1cccc(C(=O)N2CCC[C@H]2c2nc(-c3ccccc3)no2)c1,"inconclusive: 56.2 µM [inhibitor, partial curve, poor fit]",,
CN(C)C[C@@H]1CN(Cc2ccncc2)C[C@H]1NC(=O)Cc1ccsc1,"inconclusive: 89.1 µM [inhibitor, partial curve, poor fit]",,
CC1CCC(NC(=O)c2cc3n(n2)CC(c2ccc4c(c2)OCO4)OC3)CC1 (stereo not given),active: 22.4 µM,,
COc1ccc(NC(=O)[C@@H]2C[C@@H](c3cccc(C(F)(F)F)c3)N(Cc3cnn(C)c3)C2)cn1,"inconclusive: 70.8 µM [inhibitor, partial curve, poor fit]",,
O=c1[nH]c(C2CCCN(Cc3ccsc3)C2)nn1-c1ccccc1 (stereo not given),"inconclusive: 126 µM [inhibitor, single point]",,
Cc1cccc(S(=O)(=O)N2CC(C(=O)NC3CCCCC3)C3(CCOCC3)C2)c1 (stereo not given),,inactive: -11.9%,
CCS(=O)(=O)N(C1CC1)C1CCOC2(CCN(C(=O)c3ccc(OC)cc3)CC2)C1 (stereo not given),,inactive: -3.4%,
Cc1ccsc1CN1CCOc2cc([S+](=O)([O-])Nc3ccccc3)ccc2C1,active: 63.1 µM,,
O=C(N1c2ccccc2CC1c1noc(C2CCOCC2)n1)C1(c2ccccc2)CC1 (stereo not given),"inconclusive: 39.8 µM [inhibitor, partial curve, poor fit]",,
CN(Cc1ccccc1C(F)(F)F)C1CCc2ccccc21 (stereo not given),"inconclusive: 100 µM [inhibitor, partial curve]",,
O=C(c1ccncc1)N1CC2CCC(C1)N2Cc1ccc(-c2cncnc2)cc1,"inconclusive: 50.1 µM [inhibitor, partial curve, poor fit]",,
COc1ccc(-c2noc([C@@H]3Cc4nc[nH]c4CN3C(=O)NC3CCCCC3)n2)cc1,,inactive: -28.3% [at 172 µM],
O=C(Cc1cccs1)N1CC(Oc2ccccc2-c2nc(C3CC3)no2)C1,"inconclusive: 89.1 µM [inhibitor, single point]",,
CC(=O)Nc1ccc(C2(C(=O)N(C)Cc3ccccc3)CCCCC2)cc1,active: 50.1 µM,,
O=C(NC1CCCCC1)N1c2ccccc2CC1c1noc(C2CCOCC2)n1 (stereo not given),,inactive: -21.1%,
Cc1noc2c(N3CCN(Cc4ccccc4)CC3)cc(-c3ccsc3)nc12,active: 56.2 µM,,
CN1CCCCCCN(Cc2ccc3[nH]ccc3c2)[C@H]2CCC[C@H]2C1=O,"inconclusive: 89.1 µM [inhibitor, single point]",,
O=C1NCc2ccccc2CC12CCN(Cc1ccncc1Cl)CC2,,inactive: -18.8%,
CCC(C)Oc1ccccc1CN1CCC(CO)(CN2CCCC2)CC1 (stereo not given),"inconclusive: 50.1 µM [inhibitor, partial curve, poor fit]",,

SMILES,Potency,"activity change, negative = cytotoxicity",outcome
CC(C)c1noc(-c2cn(C3CCN(C(=O)c4ccc(C(C)(C)C)cc4)C3)nn2)n1 (stereo not given),"inconclusive: 39.8 µM [inhibitor, partial curve, poor fit]",,
Cc1ccc(-c2ccccc2CN2CCN(C(=O)NC(C)C)CC2)cc1Cl,"inconclusive: 10 µM [inhibitor, full curve, poor fit]",,
Cn1c(CN2CCOCC2)nnc1C1CCCN(c2ccc(C#N)cn2)C1 (stereo not given),,,inactive
CC1=C[C@@H](CN2CCC(CO)CC2)[C@H](C(C)C)C[C@H]1Cc1nnc(-c2cccnc2)o1,"inconclusive: 112 µM [inhibitor, partial curve]",,
CC1=C[C@@H](CNC2CCOCC2)[C@H](C(C)C)C[C@H]1Cc1nc2ccccc2n1C,"inconclusive: 50.1 µM [inhibitor, full curve, poor fit]",,
CC1(COc2ccccc2)COc2ccc(C(=O)Nc3ccc4[nH]ccc4c3)cc2N1 (stereo not given),active: 44.7 µM,,
O=C(N[C@H]1CCN2C(=O)c3cc(-c4ccc(Cl)cc4)ccc3NC(=O)[C@H]12)c1cccs1,"inconclusive: 44.7 µM [inhibitor, partial curve]",,
Cc1ccccc1-c1onc(C)c1C(=O)NCCc1ccc(F)cc1,"inconclusive: 89.1 µM [inhibitor, single point]",,
Cc1ccc(C(=O)N2CCCCCCN(C)C(=O)[C@@H]3CCC[C@@H]32)s1,"inconclusive: 39.8 µM [inhibitor, partial curve, poor fit]",,
CC(C)(C)OCC1CN(CCc2ccccc2)[S+](=O)([O-])c2cccnc2O1 (stereo not given),"inconclusive: 89.1 µM [inhibitor, single point]",,
COc1ccc(OC)c([C@@H]2C[C@H](NC(C)=O)C[C@H](Cc3ccccc3)O2)c1,"inconclusive: 15.8 µM [inhibitor, full curve]",,
Cn1nccc1C(O)c1cc2n(n1)CCN(C(=O)CCN1CCCO1)C2 (stereo not given),,,inactive
O=C(O)C[C@@H]1CCN(C(=O)NC2CCCCC2)C[C@@H]1CCN1CCC(C(=O)O)CC1,,inactive: -17.1% [at 172 µM],
Fc1ccc2nc(CO[C@H]3CN(Cc4ccccc4)C[C@H]3F)[nH]c2c1,"inconclusive: 100 µM [inhibitor, partial curve, poor fit]",,
O=C1Nc2ccccc2CC12CN([S+](=O)([O-])c1cccc(C(F)(F)F)c1)C2,,inactive: -20.1%,
Cc1ccc(NC(=O)N2CCCC(c3nnc(CN(C)C)n3C)C2)cc1C (stereo not given),,inactive: -8.58%,
Cn1ncc2c(C(=O)NCC#N)cc(-c3cccc(F)c3)nc21,"inconclusive: 100 µM [inhibitor, partial curve, poor fit]",,
COCCCNC(=O)c1csc(N2CCN(c3ccccc3)CC2)n1,"inconclusive: 44.7 µM [inhibitor, partial curve, poor fit]",,
CN(C)c1ncc2c(n1)C(C)(C(=O)Nc1ccccc1)CCC2 (stereo not given),"inconclusive: 112 µM [inhibitor, single point]",,
Cc1ccc(CN2C[C@@H](CO)[C@H](c3nc(C)no3)C2)nc1,"inconclusive: 89.1 µM [inhibitor, single point]",,
COc1ccc2nc(CO[C@H]3CN(Cc4ccc(S(C)(=O)=O)cc4)C[C@H]3F)[nH]c2c1,"inconclusive: 31.6 µM [inhibitor, full curve, poor fit]",,
COc1ccc(F)cc1-c1ccc(CN2CCC(NC(=O)C3CCCCC3)C2)cc1 (stereo not given),active: 44.7 µM,,

SMILES,Potency,"activity change, negative = cytotoxicity",outcome
C#CCN(C)Cc1nc(C2(O)CCN(C(=O)C3CCCCC3)CC2)cs1,,inactive: -26.3% [at 172 µM],
Cc1ccc(C2Cn3nnc(C(=O)N4CCC(C(=O)NCc5ccc(F)cc5F)CC4)c3CO2)cc1 (stereo not given),,inactive: -1.33%,
CN(CCc1ccccc1)C1(C(=O)N2CCCC(C#N)C2)Cc2ccccc2C1 (stereo not given),"inconclusive: 50.1 µM [inhibitor, partial curve, poor fit]",,
CC(C)N1C[C@H](O)C[C@H]1c1nnc2n1CCN(C(=O)Cc1ccccc1)CC2,,inactive: -2.61%,
CCn1ccnc1CN(C)C(=O)c1ccc2oc(-c3ccc(C(F)(F)F)cc3)nc2c1,"inconclusive: 50.1 µM [inhibitor, partial curve, poor fit]",,
CC(=O)c1cc(C(=O)NC2CCCN(c3nc4ccccc4s3)C2)[nH]n1 (stereo not given),"inconclusive: 79.4 µM [inhibitor, partial curve, poor fit]",,
O=C1NCCCCCCN(C(=O)c2cccs2)[C@H]2C[C@H](c3nc(-c4cccnc4)no3)C[C@@H]12,,inactive: -12.5%,
CC(O)CNS(=O)(=O)c1cccc(C(=O)Nc2cccc3c2CCC3)c1 (stereo not given),,inactive: -1.37%,
CC(C)N(C(=O)c1ccccc1-c1cc(NC2CC2)nc(N)n1)C(C)C,"inconclusive: 39.8 µM [inhibitor, full curve, poor fit]",,
O=C(c1ccc(Cl)cc1)N1CCCC(C(=O)N2CCC(c3nc4ccncc4[nH]3)C2)C1 (stereo not given),,inactive: -5.38%,
O=C(NCc1ccc(Cl)cc1)c1ccc2nnc(C3CCCC3)n2c1,"inconclusive: 44.7 µM [inhibitor, partial curve, poor fit]",,
COc1ccc(Nc2ccnc(N3CCCC(C(=O)N4CCN(C)CC4)C3)n2)cc1 (stereo not given),"inconclusive: 100 µM [inhibitor, single point]",,
CC(C)(N)C(=O)NCc1nc(-c2cccc(F)c2)c(-c2ccccn2)[nH]1,"inconclusive: 89.1 µM [inhibitor, partial curve, poor fit]",,
COc1ccc(-c2cc(N3CCN(C(=O)Cc4ccc(Br)cc4)CC3)n[nH]2)cc1,,inactive: 0.575%,
CC(C)c1nc2c(c(-c3ccc(Cl)cc3)n1)CN(C(=O)c1ccccc1)CC2,"inconclusive: 79.4 µM [inhibitor, partial curve, poor fit]",,
COCC(=O)NC1CCN(C(=O)c2ccc(-c3cccs3)cc2)CC1,"inconclusive: 50.1 µM [inhibitor, partial curve, poor fit]",,
CN1CCN(c2ccc(-c3cc4c(ccn4C)c(C(=O)NCc4cnccn4)n3)cc2)CC1,active: 44.7 µM,,
CC(Cc1cccnc1)NC(=O)c1cn(Cc2ccccc2C(F)(F)F)nn1 (stereo not given),,inactive: 1.01%,
O=C(N[C@H]1CCN2C(=O)c3cc(-c4ccccc4F)ccc3NC(=O)[C@H]12)c1cccs1,"inconclusive: 56.2 µM [inhibitor, partial curve, poor fit]",,
CCc1ncc(C(=O)N2CCCC(CCc3cccc(C(F)(F)F)c3)C2)cn1 (stereo not given),"inconclusive: 11.2 µM [inhibitor, full curve, poor fit]",,
O=C(NC1CCCC1)N1CCN(Cc2ccccc2-c2cccnc2)CC1,"inconclusive: 44.7 µM [inhibitor, partial curve, poor fit]",,
